This note sets out measurements from the supplement of paper PMC4604168 (melanoma cell lines).

Assay in all cases: cell count relative to DMSO control; melanoma cells; higher = more viable cells
Details in all cases: library dose: standard library concentration; 72 h

Assay [1] relates to G361.
In assay [2] the test system is IPC-298.
Assay [3] has as its system IST-MEL1.
Assay [4] relates to LB2518-MEL.
Assay [5] relates to LOXIMVI.
In assay [6] the test system is MEL-HO.
The test system of assay [7] is MZ2-MEL.
Assay [8] deals with MeWo.
The subject of assay [9] is RPMI7951.
The subject of assay [10] is RVH-421.

The other results are listed elsewhere or left out. Single values are uncertain, as repeats are few or missing.
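Further: cells treated in 1,536-well plates, then fixed and DAPI-stained, with nuclei counted from automated high-throughput microscope images.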

As to `Cn1cnc2c(F)c(Nc3ccc(Br)cc3Cl)c(C(=O)NOCCO)cc21` [selumetinib] + COC(=O)c1sccc1S(=O)(=O)Nc1ccc(Nc2ccccc2)cc1OC [GSK0660] (first compound 0.075 µM, partner dose 5 µM), the cell count is 67.4% in assay [1]; 60.1% in assay [2]; 80.4% in assay [3]; 48.1% in [4]; 112% in [5]; 86.8% in [6]. Moreover, the cell count in assay [7] came to 71.6%; in assay [8] it was 84.4%; in [9], 100%; in assay [10] it was 92.4%.
For the molecule `COc1cc([C@@H]2c3cc4c(cc3[C@@H](O[C@@H]3O[C@@H]5CO[C@@H](C)O[C@H]5[C@H](O)[C@H]3O)[C@H]3COC(=O)[C@H]23)OCO4)cc(OC)c1O` [etoposide] + COc1ccc(Cl)c(Nc2nc3ccccc3nc2NS(=O)(=O)c2cccc(NC(=O)C(C)(C)N)c2)c1 [XL147] (first compound 0.1 µM, partner dose 4 µM), the cell count stood at 81.2% in assay [1]; 63% in assay [2]; 67.9% in assay [3]; 80.9% in assay [4]; 95.7% in [5]; 68.5% in assay [6]. In addition, the cell count in assay [7] stood at 66.9%; in [8], 91.9%; in assay [9], 118%; in [10] it was 133%.
As for `C[C@]1(O)C[C@@H](c2nc(-c3ccc4ccc(-c5ccccc5)nc4c3)c3c(N)nccn32)C1` + COc1ccc(Cl)c(Nc2nc3ccccc3nc2NS(=O)(=O)c2cccc(NC(=O)C(C)(C)N)c2)c1 [XL147] (first compound 2 µM, partner dose 4 µM), the cell count in [1] worked out at 73.5%; in [2] it was 76.2%; in assay [3], 63.9%; in [4], 93.5%; in assay [5], 74.4%; in assay [6], 64.6%. For the same molecule, the cell count in assay [7] stood at 123%; in assay [8], 95.5%; in assay [9], 95.8%; in assay [10] it was 78.3%.
With `COc1cc([C@@H]2c3cc4c(cc3[C@@H](O[C@@H]3O[C@@H]5CO[C@@H](C)O[C@H]5[C@H](O)[C@H]3O)[C@H]3COC(=O)[C@H]23)OCO4)cc(OC)c1O` [etoposide] + O=C(O)c1ccc2c(c1)nc(Nc1cccc(Cl)c1)c1ccncc12 [CX4945] (first compound 0.1 µM, partner dose 2 µM), the cell count amounted to 69.8% in assay [1]; 58.5% in assay [2]; 99% in assay [3]; 105% in assay [4]; 58.2% in [5]; 68.7% in [6]. The cell count in assay [7] came out at 56.8%; in [8], 84.2%; in assay [9] it was 118%; in assay [10] it was 96.6%.
As to `CCN(CC)CCNC(=O)c1c(C)[nH]c(/C=C2\C(=O)Nc3ccc(F)cc32)c1C` [sunitinib] + COc1cc(N2CCC(N3CCN(C)CC3)CC2)ccc1Nc1ncc(Cl)c(Nc2ccccc2S(=O)(=O)C(C)C)n1 [NVP-TAE684] (first compound 2 µM, partner dose 0.4 µM), the cell count in assay [1] worked out at 72.1%; in [2], 83.2%; in assay [3] it was 113%; in [4], 65.1%; in assay [5] it was 101%; in assay [6], 95.7%. Also, the cell count in [7] stood at 89.9%; in [8], 45.1%; in assay [9], 45.8%; in assay [10], 113%.
For `CCN(CC)CCNC(=O)c1c(C)[nH]c(/C=C2\C(=O)Nc3ccc(F)cc32)c1C` [sunitinib] + Cn1c(Nc2ccc(C(F)(F)F)cc2)nc2cc(Oc3ccnc(-c4ncc(C(F)(F)F)[nH]4)c3)ccc21 [CHIR265] (first compound 2 µM, partner dose 0.4 µM), the cell count was found to be 29.4% in assay [1]; 42.2% in assay [2]; 83.8% in [3]; 43% in [4]; 114% in assay [5]; 64.9% in assay [6]. Moreover, the cell count in assay [7] stood at 66.6%; in assay [8], 42.3%; in assay [9], 57%; in assay [10] it was 69.8%.
Take `CCN(CC)CCNC(=O)c1c(C)[nH]c(/C=C2\C(=O)Nc3ccc(F)cc32)c1C` [sunitinib] + Cc1cc(N2CCOCC2)cc2[nH]c(-c3c(NC[C@@H](O)c4cccc(Cl)c4)cc[nH]c3=O)nc12 [BMS536924] (first compound 2 µM, partner dose 1 µM): the cell count came out at 72.6% in assay [1]; 89.3% in assay [2]; 88.9% in assay [3]; 63.5% in assay [4]; 60.3% in [5]; 95.7% in [6]. For the same molecule, the cell count amounted to 108% in assay [7], 54.5% in [8], 45.9% in assay [9] and 79.9% in assay [10].
As to `C[C@]1(O)C[C@@H](c2nc(-c3ccc4ccc(-c5ccccc5)nc4c3)c3c(N)nccn32)C1` + C[C@@H](Oc1cc(-c2cnn(C3CCNCC3)c2)cnc1N)c1c(Cl)ccc(F)c1Cl [Crizotinib] (first compound 2 µM, partner dose 1 µM), the cell count was 81.1% in [1]; 75.9% in [2]; 97.1% in assay [3]; 113% in assay [4]; 129% in [5]; 87.3% in [6]. The cell count is 83.1% in assay [7], 72% in assay [8], 111% in assay [9] and 74.6% in assay [10].
Regarding `COc1cc([C@@H]2c3cc4c(cc3[C@@H](O[C@@H]3O[C@@H]5CO[C@@H](C)O[C@H]5[C@H](O)[C@H]3O)[C@H]3COC(=O)[C@H]23)OCO4)cc(OC)c1O` [etoposide] + COc1cc(Nc2ncc(F)c(Nc3ccc4c(n3)NC(=O)C(C)(C)O4)n2)cc(OC)c1OC [Tamatinib] (first compound 0.1 µM, partner dose 2 µM), the cell count was 78.3% in assay [1]; 68.3% in [2]; 73.7% in assay [3]; 83.4% in assay [4]; 33.6% in assay [5]; 79.4% in assay [6]. For the same molecule, the cell count in [7] amounted to 59.1%; in assay [8], 62.3%; in assay [9] it was 40.6%; in assay [10], 74.2%.
